The other results are listed elsewhere or left out.
Each sequence was assayed on PfAP2-HC AP2 domain (GST-tagged) (assay: gcPBM binding intensity (ln(normalized median fluorescence intensity)); higher = stronger DNA binding).
Procedure, shortened: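 In this array assay, P. falciparum DNA-binding domains with a GST tag, expressed in E. coli, were applied for 1 h to primer-extended double-stranded 36-bp intergenic genomic probes and negative controls on an Agilent 4 × 180k array. Bound protein was visualised with Alexa488 anti-GST antibody at 488 nm. Binding intensity is the highest Masliner-normalised natural-log median intensity across replicate spots of either probe orientation.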

First: ACGTTTGATACACATAAAGTTTTCCTTTGAATGTAC [CACACA_negctrl_site106]
Second: GGTATATTAAAATAGGTGCATAAAACTAAGAGAAAA [GTGCAC_site9781]
The “gcPBM binding intensity (ln)” value of the first is lower: 9.61 for the first, 9.73 for the second.

Compared with “AAAAATTACCTGACTTGTACATAATTTAAGAACAAT [XGTACX_site6233]”, “AATAATACACAATTTTGTACGTATTTAAAATATATT [XGTACX_site45]” is higher in “gcPBM binding intensity (ln)” value: 9.57 for the first, 9.74 for the second.

First: TATTTATGAGAAATAGTGCAAAGATATGATCTTTAA
Second: AATTAAAAACATTTCACACATAAAAATGAAATATAT [CACACA_site5199]
The “gcPBM binding intensity (ln)” value of the first is lower: 9.52 for the first, 9.56 for the second.

First: TAAAATATATAATAATGTACATATTTTTATTTAGGA [XGTACX_site4987]
Second: AAATTATAATATAATACACACATAAAAAAAAAATCA [CACACA_site3634]
The “gcPBM binding intensity (ln)” value of the first is lower: 9.57 for the first, 10.1 for the second.

Going from “TATATATATATATATTGTACACATATATATTTACGA [XGTACX_site4791]” to “TGATTCTTTTGTATCACACACACTTAGTTTAATTTT [CACACA_site2404]”, the “gcPBM binding intensity (ln)” value rises from 9.57 to 10.2.

First: TTTTTTTATTATCATGCACACATTTTTTTTTTTTAC [CACACA_site2253]
Second: ACTTGACACGGACACACACACATATATAAAAAAAAA [CACACA_site4576]
The “gcPBM binding intensity (ln)” value of the first is lower: 10.2 for the first, 10.5 for the second.

Compared with “TCCTTTATTTTTAAATGTACAAATATTATCTCCTCA [XGTACX_site5856]”, “ATAATAAAAATAAGAGAATAAAAATGCAATTTAATG [CACACA_negctrl_site878]” is higher in “gcPBM binding intensity (ln)” value: 9.5 for the first, 9.71 for the second.

Compared with “AACTCACATAAATTCACACAAATGTATATTCATATA [CACACA_site4554]”, “ATTTATAATGTGTATACACACATATATAGATTTGCT [CACACA_site6440]” is higher in “gcPBM binding intensity (ln)” value: 9.58 for the first, 9.8 for the second.

Going from “ATTGATCGGATAAAATGTACAAATATATATATATAT [XGTACX_site7345]” to “TCTTTTTTTATTTTATTTTTTTTTTTTAAATAATTC [TGCATGCA_negctrl_site372]”, the “gcPBM binding intensity (ln)” value falls from 9.74 to 9.52.

Going from “CATATTAATATTATGGGTACATATAAATTTACATTC [XGTACX_site687]” to “ATTATAATATTGTTATGTACATAAAAATTATTGAAT [XGTACX_site4476]”, the “gcPBM binding intensity (ln)” value rises from 9.59 to 9.82.

First: AAAACATAAATACATACACACATAATATATATTAAT [CACACA_site109]
Second: AAAAAATAATAAATCACACATATTATATATATATAT [CACACA_site5838]
The “gcPBM binding intensity (ln)” value of the first is higher: 9.97 for the first, 9.64 for the second.

Going from “AACATGAAAGATAGCAAAAAAAAAAAAAAAAAAAAA [TGCATGCA_negctrl_site607]” to “CCCGTAAATTATGAGTGTACGTTATTTTTTAAAATG [XGTACX_site3946]”, the “gcPBM binding intensity (ln)” value rises from 8.52 to 9.46.

Going from “ACATATACATATATATGTACATAAATATATATATAT [XGTACX_site8630]” to “GTGCATATCTGATATACACACAATAAAATAGTATGT [CACACA_site7203]”, the “gcPBM binding intensity (ln)” value rises from 9.72 to 9.87.

Going from “AATTATATATTTGAGAGTACATATGTAATGTTTATA [XGTACX_site6970]” to “CATATATTATTTATACGTACTAATAAAATAAATCAA [XGTACX_site1030]”, the “gcPBM binding intensity (ln)” value falls from 9.8 to 9.36.

Going from “TATGATACATAAATATGTACGTATAATATATATTTA [XGTACX_site7002]” to TGCAAGCTTATATAGGTGCACATGTATACGTGTTCA, the “gcPBM binding intensity (ln)” value falls from 9.73 to 9.72.

Going from “TATATACACAAACACACACACACATACACCCACATA [CACACA_site8504]” to “TATTAAAATTAAAAAAAAAAAAAAAAGCAATAAAAA [XGTACX_negctrl_site426]”, the “gcPBM binding intensity (ln)” value falls from 10.8 to 9.41.

First: TATGTAGTCACAAGGTGTACACTTTAACAAATTATG [XGTACX_site8792]
Second: TTCTAACTTTTAAACACACAAATATAAATAAGTATA [CACACA_site7473]
The “gcPBM binding intensity (ln)” value of the first is higher: 9.62 for the first, 9.54 for the second.

Compared with “GAACGTATCATGTGTACACACAAATTGTTTTTTTTT [CACACA_site2020]”, “AAATGAACAAGTGGCACACACACATTATAACTAATT [CACACA_site9048]” is higher in “gcPBM binding intensity (ln)” value: 10.1 for the first, 10.3 for the second.

First: AAGAATAATAATAAATGTACACAATATTATATATAT [XGTACX_site5525]
Second: AAGCTTCATTAATATACACACATATATGCGTATATT [CACACA_site3695]
The “gcPBM binding intensity (ln)” value of the first is lower: 9.76 for the first, 9.91 for the second.

Compared with “TATATAATTATAAGAACACACATATATATATATATA [CACACA_site2472]”, “AAATTTGAAGAATATTGTACGCATAATAATTAAATA [XGTACX_site4300]” is higher in “gcPBM binding intensity (ln)” value: 9.49 for the first, 9.75 for the second.

Compared with “TGTATGAAATATATTACACACATATAAAATCTATAT [CACACA_site6514]”, “TTTTTAATTTTTTGTTGTACATATAATATATTATTA [XGTACX_site4903]” is lower in “gcPBM binding intensity (ln)” value: 9.76 for the first, 9.67 for the second.

Compared with “TTGATGTTGGTAGGATGTACGGTACCGGTAAAGTTT [XGTACX_site7705]”, “ATGCTTTTTAAATGATTGCACTAGATTGTAATATGT [GTGCAC_site9666]” is higher in “gcPBM binding intensity (ln)” value: 9.6 for the first, 9.66 for the second.

“TATATATATATTTTAACACACACATATATATATTTA [CACACA_site8892]” was tested, and the “gcPBM binding intensity (ln)” value was 10.
